In all, about 48,000 compounds went through this assay and about 120 (0.25%) were called active. Roughly 4% stayed inconclusive and do not appear here. Calls follow the shape of the dose curve; as a rule, active = well fitted activation curve with a large enough effect; inconclusive = small, poorly fitted or top-dose-only effect, or another doubt; inactive = no such curve, though single readings can be large or run the other way. This is one part of the list.

This experiment in a line: Primary qHTS for Identification of Small Molecule Activators of Huntingtin-Antisense Promoter Activity. Also: nearly all actives have a fitted effect of over 55% in size. The conditions noted are these: HEK293 HTT-AS promoter firefly luciferase reporter (activity 0% = vehicle and -100% = no light), 24 h; series mostly up to 57.5 µM; activity change, positive = activation: at the top concentration. The procedure, abridged: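 Quantitative HTS used concentration series of up to 57.5 uM final on HEK293 luciferase reporter cells, 24 h at 37 degrees C. Readout was Dual-Glo firefly luminescence.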
In the case of `O=C(CSc1nc2ccsc2c(=O)n1Cc1ccccc1F)NCc1ccccc1`, the “activity change, positive = activation” value was inactive: -26.8%.

In the case of `CCc1ccc(NC(=O)CN2C(=O)C(c3ccccc3)=NC23CCCCCC3)cc1`, the “activity change, positive = activation” value is inactive: -40.9%. Under `CCc1ccc(NC(=O)N(Cc2ccc(C)cc2)Cc2cccn2-c2nnc(N3CCCC3=O)s2)cc1` stands inactive: -2.66%. Under `O=C(Nc1cccc(C(F)(F)F)c1)C1CCCN(S(=O)(=O)c2cccc3nsnc23)C1` (configuration not stated) stands inactive: -39.2%. Consider `Cc1ccc2c(CC(=O)N3CCN(c4cccc(Cl)c4)CC3)coc2c1`, for which the “activity change, positive = activation” value is inactive: -7.78%. Under `CCCCNc1ccc(-c2nc(-c3ccccc3)no2)cc1[N+](=O)[O-]` stands inactive: 16.4%; under `CSc1ncc(Cl)c(C(=O)NCc2ccc(C)cc2)n1`, inactive: 6.17%; under `O=S(=O)(Nc1ccc(F)c(C(F)(F)F)c1)c1ccc(N2CCCCS2(=O)=O)cc1`, inactive: -63.2%.

For the compound `COc1ccc(OC)c(CNS(=O)(=O)c2c(C(=O)N3CCC(C)CC3)c(C)n(C)c2C)c1`, the “activity change, positive = activation” value was inactive: -5.82%. Consider `Cc1cc(C)cc(NC(=O)Cn2nnc(C(=O)NCCc3ccccc3)c2N)c1`, for which the “activity change, positive = activation” value is inactive: -19%.

For the compound `CCOc1ccc(C(=O)NCCc2sc(-c3ccc(C)cc3)nc2C)cc1`, the “activity change, positive = activation” value is inactive: -2.94%. Under `COc1cc(Nc2nc(SCc3ccccc3F)nc3ccccc23)cc(OC)c1` stands inactive: -32.3%; under `CCOc1ccccc1NC(=O)CSc1c(C)cnc2c1c(=O)n(C)c(=O)n2C`, inactive: -14.7%.

For the compound `Cc1ccc(CCNC(=O)c2ccc(CS(=O)(=O)c3ccc(Br)cc3)o2)cc1`, the “activity change, positive = activation” value was inactive: -13.2%. Under `Cc1cccc(NC(c2cccc(F)c2)c2ccc3ccc(C)nc3c2O)n1` (configuration not stated) stands inactive: -14.1%; under `Cc1ccc(CCNC(=O)c2cc3c(s2)-c2ccccc2OC3)cc1`, inactive: -34.3%. Under `NCCNCCNCCN` stands inactive: 0.926%. Under `CCCn1c(=N)c(C(=O)NC2CCCC2)cc2c(=O)n3cc(C)ccc3nc21` stands inactive: -0.456%; under `c1ccc(-c2cc(-c3ccccc3)c3c(n2)-c2ccccc2OC3)cc1`, inactive: -10.6%.

Consider `Cc1nc2ccc(S(=O)(=O)NC(C(=O)NCc3ccccc3Cl)C(C)C)cc2s1` (configuration not stated), for which the “activity change, positive = activation” value was inactive: -10.6%. Under `CC1CCN(S(=O)(=O)c2ccc3c(c2)N(CC(=O)NCc2ccccc2Cl)C(=O)CS3)CC1` stands inactive: -39.2%. `COc1ccc(C(c2c(C)n(C)n(-c3ccccc3)c2=O)c2c(C)n(C)n(-c3ccccc3)c2=O)cc1O`: the “activity change, positive = activation” value is inactive: -14.3%. Under `CCOc1cccc2sc(N(Cc3cccnc3)C(=O)c3ccco3)nc12` stands inactive: -10.9%; under `COc1cc(OC)c(NC(=O)Nc2nnc(N(C)C3CCCCC3)s2)cc1Cl`, inactive: -3.62%; under `COc1ccc(-c2cc3c(=O)n(CC(=O)Nc4ccccc4C(F)(F)F)ccn3n2)cc1OC`, inactive: 1.91%. Under `CC(=O)c1ccc(NC(=O)CN(C)S(=O)(=O)c2cc3c(cc2C)NC(=O)CO3)cc1` stands inactive: -14.9%. Under `CC1CCN(CC(=O)N2CCCc3c2c(=O)oc2ccc(OCc4ccccc4)cc32)CC1` stands inactive: 1.34%.

The values are drawn from PubChem BioAssay AID1508624 (National Center for Advancing Translational Sciences (NCATS), 2021).
